# Article PMC7819943, “Rice protein-binding microarrays: a tool to detect cis-acting elements near promoter regions in rice”
# The list shows a part of the results.
# Target: T1, OsWOX13 (Oryza sativa, UniProt Q5QMM3 1-267)
# T1 sequence: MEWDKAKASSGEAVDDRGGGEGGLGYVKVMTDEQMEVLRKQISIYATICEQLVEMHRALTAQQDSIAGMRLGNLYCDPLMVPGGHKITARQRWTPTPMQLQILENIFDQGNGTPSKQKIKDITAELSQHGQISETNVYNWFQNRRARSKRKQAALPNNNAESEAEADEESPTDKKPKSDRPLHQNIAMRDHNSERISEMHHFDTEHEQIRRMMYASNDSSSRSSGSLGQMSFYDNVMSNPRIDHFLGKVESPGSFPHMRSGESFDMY
# Test: protein-binding microarray (RPBM); PBS, 2% BSA, 51.3 ng/ul salmon testes DNA, 50 uM zinc acetate, 200 nM TF, 25 C, 1 h; high values mean tight binding
# Settings: protein: recombinant; tags: N-terminal polyhistidine and DsRed monomer fusion (pET32a); label: CyDye5-dUTP incorporated in the synthesized complementary strand; 3' TTTTT single-stranded linker to array surface; dsDNA, one strand shown
# Method in brief: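 Transcription factors were made in E. coli BL21-CodonPlus as N-terminal fusions to a polyhistidine tag and DsRed, then purified on Ni–NTA. After primer extension with Cy5-dUTP and blocking with 2% BSA, a custom Agilent array was exposed for 1 h at 25 °C to 200 nM protein in PBS, 2% BSA, salmon testes DNA and 50 µM zinc acetate. Washed arrays were scanned on an Axon 4000B, and the binding signal is per-feature fluorescence intensity in arbitrary units.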
row,Sequence,binding signal
1,CCTAAATTAGGCTTACCAATATTTGGCAATTTCAATAGTGCGGAGTCACCTAGTGCAG,28200 fluorescence intensity (a.u.)
2,TTTTGATTACTCATATAATCACCTTGTTATTTCTTTATATCGGAGTCACCTAGTGCAG,11600 fluorescence intensity (a.u.)
3,TGCTTGATGGGACTATTAAAGATTCCTCGCTCAATTGACACGGAGTCACCTAGTGCAG,15700 fluorescence intensity (a.u.)
4,CCTAAGAAAGACATTTGGATAATTGGCAAACCTAAAAGTGCGGAGTCACCTAGTGCAG,9080 fluorescence intensity (a.u.)
5,GACAAATTGAATGTTTAACAAACGTGAGACACCGGGAAAGCGGAGTCACCTAGTGCAG,18200 fluorescence intensity (a.u.)
6,TTTCACAAAATTGAATAAGATAAACGGTCAAATATGTGCTCGGAGTCACCTAGTGCAG,4560 fluorescence intensity (a.u.)
7,CGGACATGTTAGTTGTTTAAATTGAAGGCAATGTATTTCTCGGAGTCACCTAGTGCAG,3420 fluorescence intensity (a.u.)
8,GTATGCAATTAATTAAGTACGTGGAAGCTTGTTTTCTGTACGGAGTCACCTAGTGCAG,7680 fluorescence intensity (a.u.)
9,CGAGAAATTTTAATCACAATAGGTAGGCTGTGTTAAGTTCCGGAGTCACCTAGTGCAG,5650 fluorescence intensity (a.u.)
10,GGTATGATTCAATTAATTCTAGATTAAAATATACTATCTCCGGAGTCACCTAGTGCAG,25800 fluorescence intensity (a.u.)
11,TCTGATTCGCTGAATTTCTGTCAACCTCAAATCTTCTGAACGGAGTCACCTAGTGCAG,4230 fluorescence intensity (a.u.)
12,ATATATATATATATATATATATTTTGTCTTGAGTGGTTTGCGGAGTCACCTAGTGCAG,12100 fluorescence intensity (a.u.)
13,CGTAATTGTTGGGCTACTGCGGTTTGAATGCTATGACGAGCGGAGTCACCTAGTGCAG,30300 fluorescence intensity (a.u.)
14,TTAATTGCTTGGTTTACTGACCATTTCCACTTGGAAAACTCGGAGTCACCTAGTGCAG,5130 fluorescence intensity (a.u.)
15,TTAAATGATTCATCTTTCAGTACTTGGTGCAGTCTCCTTGCGGAGTCACCTAGTGCAG,4560 fluorescence intensity (a.u.)
16,TTAAAATTTCATCAGTGATAGCTCGTATTAGCATGTAAATCGGAGTCACCTAGTGCAG,4620 fluorescence intensity (a.u.)
17,TGATGACTGGTAGCGCCTTGCCACCACCAACTGCACGGTGCGGAGTCACCTAGTGCAG,4540 fluorescence intensity (a.u.)
18,ATTAGGAGATTGACTTCGCATGATCTGACGGCTATGAAGCCGGAGTCACCTAGTGCAG,15600 fluorescence intensity (a.u.)
19,CTAATTAATCCATGATTAGCCTATGTGATGCTACAGTAAACGGAGTCACCTAGTGCAG,28300 fluorescence intensity (a.u.)
20,ATATTTAATTATTGGTTTGATGGAACTAACTTAGTACTGTCGGAGTCACCTAGTGCAG,38400 fluorescence intensity (a.u.)
21,AAATGTCTTGTAGATTGATATATTACATGGAACAAAATTTCGGAGTCACCTAGTGCAG,3240 fluorescence intensity (a.u.)
22,GACTTCAATTGACATAAACAGGCATTGGTCCTTGCTCGAGCGGAGTCACCTAGTGCAG,20000 fluorescence intensity (a.u.)
23,AATGGGAACTAATGGGCCGGATTGACTACTTTGCTACATTCGGAGTCACCTAGTGCAG,3240 fluorescence intensity (a.u.)
